# Measured values as given in the supplement of paper PMC7826260.
# This is one part of the list. Each Rep nickase domain was tested in vitro on the same pool of single strands at 3 µM enzyme and 37 °C for 1 h; the strands have 90 letters, of which the middle is given. Uncut reads are compared with the no-enzyme pool on a log2 scale; strong cutting gives strongly negative numbers. There is no active / inactive call. Reads are scaled to the total; values above 0 arise when much of the pool is cut.
# System: T1, Rep nickase domain of Muscovy duck circovirus
# T1 sequence (protein, residues 1-111, tag omitted): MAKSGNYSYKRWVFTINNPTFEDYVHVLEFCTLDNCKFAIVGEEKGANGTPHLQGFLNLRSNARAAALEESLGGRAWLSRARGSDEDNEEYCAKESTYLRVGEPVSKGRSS
# Test: uncleaved DNA left, log2 of reads against the no-enzyme library (log2 ratio); higher = less cleavage (more negative = more Rep cleavage of the k-mer); sequences stand for … in CTCGTCCG…ACCGGAGA
# Method: (§1)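 A pool of 90-nt single-stranded DNAs with seven random bases just before the constant AC of the nick site (name = the seven bases) was cut by 3 µM recombinant His6-SUMO-tagged Rep nickase domain (300 nM DNA, 50 mM HEPES pH 8.0, 50 mM NaCl, 1 mM MnCl2, 1 h, 37 °C, three replicates). Uncut DNA was amplified and sequenced.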
row,Sequence,uncleaved DNA left (log2)
1,CCGGATA,-0.0714
2,TCCACCT,-0.124
3,TCAACCC,-0.432
4,CAGAGAC,0.0826
5,TTATTAG,0.116
6,TTCCACG,-0.0195
7,TGACCAG,-0.0208
8,AGAAATG,-0.0108
9,GTTTGAA,-0.00987
10,CTACTAC,-2.61
11,ACATCAG,0.00329
12,GAAATCG,-0.0709
13,TACCCTG,-0.0208
14,CTAAGGT,0.00345
15,CGCCCGA,-0.0425
16,TCTGGAT,0.0221
17,TATTGAG,0.0544
18,TCCCCGT,-0.18
19,TGTGGGT,0.00717
20,ATACCCT,-0.0683

row,Sequence,uncleaved DNA left (log2)
1,TTTTGTA,-0.434
2,TGTTGTA,-0.2
3,TTTGTCA,0.0738
4,CGGGAGT,-0.0177
5,CGCGTGG,0.126
6,CCCCGCG,-0.0571
7,CCATCCG,-0.155
8,AGGCTGA,-0.0273
9,CGTCCAG,-0.0534
10,CGTTTAG,0.249
11,CCTATCC,-0.138
12,CCGAGCT,0.148
13,TGGAGGC,0.0904
14,ACAGTGG,0.00583
15,AGAACTA,0.0629
16,TGTCTCG,-0.0257
17,CCAGATT,0.0401
18,CAGCACT,-0.00522
19,AGGTGAC,-0.0209
20,AGGGTTA,0.0285

# System: T2, Rep nickase domain of banana bunchy top virus
# T2 sequence (protein, residues 1-94, tag omitted): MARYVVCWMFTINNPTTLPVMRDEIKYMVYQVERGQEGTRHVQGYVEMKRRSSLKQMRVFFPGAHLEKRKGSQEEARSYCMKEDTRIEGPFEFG
# Test: as above
# Method: as §1
row,Sequence,uncleaved DNA left (log2)
1,CCGGATA,-0.189
2,TCCACCT,-0.134
3,TCAACCC,-0.000114
4,CAGAGAC,0.0135
5,TTATTAG,0.0172
6,TTCCACG,-0.0508
7,TGACCAG,0.111
8,AGAAATG,0.0973
9,GTTTGAA,0.106
10,CTACTAC,-0.178
11,ACATCAG,0.0858
12,GAAATCG,-0.0764
13,TACCCTG,-0.113
14,CTAAGGT,-0.0474
15,CGCCCGA,-0.0706
16,TCTGGAT,0.0027
17,TATTGAG,-0.0252
18,TCCCCGT,-0.11
19,TGTGGGT,0.0513
20,ATACCCT,0.0762

row,Sequence,uncleaved DNA left (log2)
1,TTTTGTA,-0.0525
2,TGTTGTA,-0.0947
3,TTTGTCA,0.094
4,CGGGAGT,-0.202
5,CGCGTGG,0.057
6,CCCCGCG,0.0132
7,CCATCCG,-0.0205
8,AGGCTGA,0.00713
9,CGTCCAG,-0.0296
10,CGTTTAG,0.264
11,CCTATCC,-0.0348
12,CCGAGCT,0.203
13,TGGAGGC,0.0854
14,ACAGTGG,-0.102
15,AGAACTA,-0.0142
16,TGTCTCG,-0.171
17,CCAGATT,-0.177
18,CAGCACT,0.0166
19,AGGTGAC,-0.0356
20,AGGGTTA,-0.0275

# System: T3, Rep nickase domain of cabbage leaf curl virus
# T3 sequence (protein, residues 1-116, tag omitted): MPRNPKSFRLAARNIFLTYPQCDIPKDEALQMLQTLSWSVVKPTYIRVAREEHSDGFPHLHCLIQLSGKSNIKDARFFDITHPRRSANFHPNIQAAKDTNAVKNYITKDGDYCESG
# Test: as above
# Method: as §1
row,Sequence,uncleaved DNA left (log2)
1,CCGGATA,0.105
2,TCCACCT,-0.101
3,TCAACCC,0.0879
4,CAGAGAC,0.348
5,TTATTAG,-0.751
6,TTCCACG,-0.688
7,TGACCAG,-0.476
8,AGAAATG,-0.0911
9,GTTTGAA,0.325
10,CTACTAC,-0.506
11,ACATCAG,-0.478
12,GAAATCG,-0.972
13,TACCCTG,-0.0147
14,CTAAGGT,-1.33
15,CGCCCGA,-0.104
16,TCTGGAT,0.327
17,TATTGAG,-0.489
18,TCCCCGT,-0.141
19,TGTGGGT,0.272
20,ATACCCT,0.298

row,Sequence,uncleaved DNA left (log2)
1,TTTTGTA,-0.17
2,TGTTGTA,0.0192
3,TTTGTCA,0.271
4,CGGGAGT,0.374
5,CGCGTGG,0.027
6,CCCCGCG,-0.632
7,CCATCCG,-0.794
8,AGGCTGA,0.243
9,CGTCCAG,-0.612
10,CGTTTAG,-0.608
11,CCTATCC,-0.0171
12,CCGAGCT,0.192
13,TGGAGGC,0.352
14,ACAGTGG,-0.728
15,AGAACTA,0.198
16,TGTCTCG,-0.747
17,CCAGATT,-0.346
18,CAGCACT,-0.174
19,AGGTGAC,0.456
20,AGGGTTA,0.205

# System: T4, Rep nickase domain of chickpea chlorotic dwarf virus
# T4 sequence (protein, residues 1-124, tag omitted): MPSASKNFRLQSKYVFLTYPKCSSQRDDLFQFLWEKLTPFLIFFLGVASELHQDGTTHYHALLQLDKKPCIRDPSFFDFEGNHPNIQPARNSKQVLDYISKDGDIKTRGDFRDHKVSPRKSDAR
# Test: as above
# Method: as §1
row,Sequence,uncleaved DNA left (log2)
1,CCGGATA,0.48
2,TCCACCT,-2.32
3,TCAACCC,-1.73
4,CAGAGAC,0.858
5,TTATTAG,-0.453
6,TTCCACG,-0.768
7,TGACCAG,-0.44
8,AGAAATG,0.338
9,GTTTGAA,0.885
10,CTACTAC,-2.69
11,ACATCAG,0.414
12,GAAATCG,-0.236
13,TACCCTG,0.238
14,CTAAGGT,-1.76
15,CGCCCGA,-0.24
16,TCTGGAT,1.52
17,TATTGAG,0.609
18,TCCCCGT,-0.72
19,TGTGGGT,0.801
20,ATACCCT,-0.487

row,Sequence,uncleaved DNA left (log2)
1,TTTTGTA,-1.2
2,TGTTGTA,-0.277
3,TTTGTCA,-0.0553
4,CGGGAGT,1.33
5,CGCGTGG,0.519
6,CCCCGCG,0.0681
7,CCATCCG,0.304
8,AGGCTGA,1.53
9,CGTCCAG,-0.401
10,CGTTTAG,-0.348
11,CCTATCC,-0.182
12,CCGAGCT,0.765
13,TGGAGGC,0.772
14,ACAGTGG,-0.545
15,AGAACTA,0.199
16,TGTCTCG,-0.493
17,CCAGATT,-2
18,CAGCACT,-2.53
19,AGGTGAC,1.33
20,AGGGTTA,0.453

# System: T5, Rep nickase domain of faba bean necrotic yellows virus
# T5 sequence (protein, residues 1-98, tag omitted): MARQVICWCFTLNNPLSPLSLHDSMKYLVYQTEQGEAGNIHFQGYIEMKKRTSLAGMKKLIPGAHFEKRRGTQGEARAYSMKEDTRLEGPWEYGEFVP
# Test: as above
# Method: as §1
row,Sequence,uncleaved DNA left (log2)
1,CCGGATA,-0.0777
2,TCCACCT,-0.0865
3,TCAACCC,-0.0489
4,CAGAGAC,-0.0719
5,TTATTAG,0.127
6,TTCCACG,0.0555
7,TGACCAG,-0.000982
8,AGAAATG,-0.0373
9,GTTTGAA,0.11
10,CTACTAC,-0.0248
11,ACATCAG,0.161
12,GAAATCG,-0.136
13,TACCCTG,-0.0649
14,CTAAGGT,-0.0559
15,CGCCCGA,-0.0596
16,TCTGGAT,0.00156
17,TATTGAG,0.119
18,TCCCCGT,-0.122
19,TGTGGGT,-0.116
20,ATACCCT,0.138

row,Sequence,uncleaved DNA left (log2)
1,TTTTGTA,0.0656
2,TGTTGTA,-0.127
3,TTTGTCA,0.0588
4,CGGGAGT,-0.13
5,CGCGTGG,0.0347
6,CCCCGCG,-0.0371
7,CCATCCG,-0.0952
8,AGGCTGA,-0.0362
9,CGTCCAG,-0.203
10,CGTTTAG,0.207
11,CCTATCC,-0.0583
12,CCGAGCT,0.127
13,TGGAGGC,0.0256
14,ACAGTGG,-0.0436
15,AGAACTA,-0.0255
16,TGTCTCG,-0.0896
17,CCAGATT,-0.137
18,CAGCACT,0.0813
19,AGGTGAC,0.00855
20,AGGGTTA,-0.0171
